# Measurements taken from the supplement of paper PMC7826260.
# Some of the results follow. One pool of 16,384 single-stranded DNAs met each Rep nickase domain in vitro (3 µM enzyme, 1 h, 37 °C); shown is the middle of each 90-letter strand. Values are log2 of uncut reads against the no-enzyme pool; strong cutting gives strongly negative numbers. There is no active / inactive call. The scaling is to total reads; where an enzyme cuts many sequences, the uncut ones exceed 0.
# Key:
# Experiment in all cases: uncleaved DNA left, log2 of reads against the no-enzyme library (log2 ratio); higher = less cleavage (more negative = more Rep cleavage of the k-mer); sequences stand for … in CTCGTCCG…ACCGGAGA
# [1] = tested on: T1, Rep nickase domain of Muscovy duck circovirus
# T1 sequence (residues 1-111, tag not shown): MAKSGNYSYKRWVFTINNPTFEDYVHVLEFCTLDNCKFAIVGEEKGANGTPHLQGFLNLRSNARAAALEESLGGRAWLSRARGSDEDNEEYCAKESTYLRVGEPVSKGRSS
# Protocol: (§1)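 A pool of 90-nt single-stranded DNAs with seven random bases just before the constant AC of the nick site (name = the seven bases) was cut by 3 µM recombinant His6-SUMO-tagged Rep nickase domain (300 nM DNA, 50 mM HEPES pH 8.0, 50 mM NaCl, 1 mM MnCl2, 1 h, 37 °C, three replicates). Uncut DNA was amplified and sequenced.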
# [2] = tested on: T2, Rep nickase domain of banana bunchy top virus
# T2 sequence (residues 1-94, tag not shown): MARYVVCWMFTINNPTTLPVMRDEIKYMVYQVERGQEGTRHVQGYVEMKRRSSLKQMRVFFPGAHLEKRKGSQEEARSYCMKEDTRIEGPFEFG
# Protocol: as §1
# [3] = tested on: T3, Rep nickase domain of cabbage leaf curl virus
# T3 sequence (residues 1-116, tag not shown): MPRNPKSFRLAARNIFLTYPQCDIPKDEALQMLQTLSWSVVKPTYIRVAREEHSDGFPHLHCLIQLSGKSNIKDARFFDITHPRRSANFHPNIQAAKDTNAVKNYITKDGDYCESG
# Protocol: as §1
# [4] = tested on: T4, Rep nickase domain of chickpea chlorotic dwarf virus
# T4 sequence (residues 1-124, tag not shown): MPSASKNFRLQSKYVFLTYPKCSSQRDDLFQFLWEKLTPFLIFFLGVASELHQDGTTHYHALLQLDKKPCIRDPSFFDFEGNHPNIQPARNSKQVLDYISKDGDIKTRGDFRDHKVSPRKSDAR
# Protocol: as §1
# [5] = tested on: T5, Rep nickase domain of faba bean necrotic yellows virus
# T5 sequence (residues 1-98, tag not shown): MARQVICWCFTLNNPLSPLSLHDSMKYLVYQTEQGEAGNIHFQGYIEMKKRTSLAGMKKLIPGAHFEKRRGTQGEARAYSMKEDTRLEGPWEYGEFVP
# Protocol: as §1
# [6] = tested on: T6, Rep nickase domain of maize striate mosaic virus
# T6 sequence (residues 1-117, tag not shown): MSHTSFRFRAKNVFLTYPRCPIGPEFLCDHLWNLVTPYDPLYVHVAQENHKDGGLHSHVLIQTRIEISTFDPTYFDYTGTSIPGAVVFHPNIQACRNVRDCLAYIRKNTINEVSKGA
# Protocol: as §1
# [7] = tested on: T7, Rep nickase domain of porcine circovirus 2
# T7 sequence (residues 2-116, tag not shown): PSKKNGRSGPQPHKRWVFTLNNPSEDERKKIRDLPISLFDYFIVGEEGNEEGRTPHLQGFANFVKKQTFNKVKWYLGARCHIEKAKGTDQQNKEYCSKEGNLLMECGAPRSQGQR
# Protocol: as §1
# [8] = tested on: T8, Rep nickase domain of tomato yellow leaf curl virus
# T8 sequence (residues 1-136, tag not shown): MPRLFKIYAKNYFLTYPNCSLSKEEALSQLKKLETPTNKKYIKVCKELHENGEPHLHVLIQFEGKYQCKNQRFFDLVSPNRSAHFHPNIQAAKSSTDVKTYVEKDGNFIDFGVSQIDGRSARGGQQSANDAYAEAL
# Protocol: as §1
# [9] = tested on: T9, Rep nickase domain of wheat dwarf virus
# T9 sequence (residues 1-137, tag not shown): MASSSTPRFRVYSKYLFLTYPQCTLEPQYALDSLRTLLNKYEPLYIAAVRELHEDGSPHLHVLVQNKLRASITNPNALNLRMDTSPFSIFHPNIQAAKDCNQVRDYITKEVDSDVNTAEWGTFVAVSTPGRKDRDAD
# Protocol: as §1
Sequence,uncleaved DNA left (log2) [1],uncleaved DNA left (log2) [2],uncleaved DNA left (log2) [3],uncleaved DNA left (log2) [4],uncleaved DNA left (log2) [5],uncleaved DNA left (log2) [6],uncleaved DNA left (log2) [7],uncleaved DNA left (log2) [8],uncleaved DNA left (log2) [9]
AATAACG,0.0173,0.0385,-0.614,-0.159,0.128,-1.01,0.262,0.138,-0.013
GATTGTT,-2.9,-2.85,-0.805,-1.87,-1.43,-0.446,-3.38,0.167,-0.473
GATCGGA,0.113,0.0125,0.256,0.633,-0.00138,0.43,0.0427,0.001,0.128
TGTTGGG,0.0465,-0.0264,-0.639,-0.715,0.0649,-0.769,0.203,0.0792,-0.103
GGGGAAC,0.00268,0.116,0.758,1.79,-0.0168,2.25,0.189,-0.0255,0.139
ATTACCC,-0.3,-0.121,-0.148,-2.17,-0.0813,-0.422,-1.37,-0.0668,-0.111
TTCCTGT,-0.0597,-0.0354,0.0488,-0.447,-0.0134,-0.241,0.000939,-0.0791,-0.0745
AGGCTGG,0.0625,0.0428,0.223,0.91,-0.079,0.999,0.344,-0.121,0.0826
ATTGGTC,0.0637,-0.223,-0.145,-0.165,-0.04,-0.611,-0.0731,-0.0328,-0.123
CACGGTT,-0.144,-0.0886,-0.00773,-0.593,-0.212,0.886,-0.211,-0.216,-0.212
TTCCACC,-0.0883,-0.168,0.049,-0.385,-0.0567,-0.0832,-0.313,-0.0906,-0.0836
ACATACG,0.0596,-0.0304,-0.444,0.803,0.0183,-0.143,0.19,0.0464,0.0356
CACCCTG,-0.128,0.0534,-0.0475,-0.0436,0.0648,-0.0292,-0.24,0.00803,0.00764
GAAAATT,0.0652,0.0485,-2.4,-2.46,0.00693,0.915,-1.85,0.0353,-0.853
TCCCTCC,0.0329,0.0556,0.259,0.069,0.0394,0.548,0.122,-0.0364,-0.0783
TACCTTC,0.0359,0.00185,-0.0832,-1.13,-0.01,-0.509,-0.779,0.0569,0.0789
GCATGGA,-0.0223,-0.0731,-0.0182,0.215,-0.0347,-0.339,-0.0854,-0.0218,0.0178
AAAAGCA,0.0635,0.109,-0.423,-1.48,0.143,-1.08,-0.0738,0.134,0.1
GGTAGCA,0.0934,0.061,0.431,1.14,-0.0247,1.4,0.112,0.0622,0.0225
TTTCTAG,0.115,0.0863,-0.565,-0.606,0.22,-1.1,0.207,0.115,0.116

Sequence,uncleaved DNA left (log2) [1],uncleaved DNA left (log2) [2],uncleaved DNA left (log2) [3],uncleaved DNA left (log2) [4],uncleaved DNA left (log2) [5],uncleaved DNA left (log2) [6],uncleaved DNA left (log2) [7],uncleaved DNA left (log2) [8],uncleaved DNA left (log2) [9]
ACCATAT,0.14,-0.125,-0.409,-0.929,0.0801,-1.18,-0.0648,-0.109,-0.152
ATAGTAG,0.0635,0.00504,-0.617,-0.446,0.137,-0.963,0.165,0.168,0.109
ATCGATA,0.0492,-0.016,-0.113,-0.872,0.0256,-0.318,-0.0829,-0.0927,0.0187
AACCTGC,-0.0687,-0.00534,-0.429,-0.568,0.00428,-0.944,-0.116,-0.00702,0.0008
CAGGCGG,-0.0509,0.0164,0.13,0.683,-0.125,0.0637,0.041,-0.0109,0.00923
AATTTGT,-3.62,-3,-0.417,-1.4,0.0348,-1.39,-3.8,-0.03,0.0159
GCCTTAT,0.0974,0.177,0.481,0.482,0.257,0.585,-0.399,0.298,0.271
GCGCCAT,-0.0187,0.00405,0.435,1.09,0.0973,1.38,-0.00424,0.034,0.0543
TACGAAA,0.067,0.0443,0.0795,-0.798,0.108,-0.585,0.0244,-0.0078,0.0471
ATGACTT,-0.004,-0.0511,-0.000592,0.543,-0.0148,1.01,-0.417,-0.097,0.0498
TGACACT,0.15,-0.0146,0.404,-0.621,0.0373,1.02,-0.0148,0.0384,0.134
TAGCTGA,0.175,0.078,0.367,1.54,0.0245,1.66,0.183,0.0131,0.173
CGCCTCG,-0.0533,0.0191,-0.617,-0.283,0.0356,-0.749,0.116,-0.061,0.0251
CGTAGGG,-0.104,-0.0926,-0.174,0.242,-0.0432,-0.518,0.0463,-0.0828,-0.0605
TTATCGA,0.132,0.0806,-0.0938,-0.369,0.0976,-0.906,0.0543,0.143,0.108
TATCGTT,-0.645,-0.506,-1.92,-3.02,-0.0333,-0.835,-3.01,-0.205,-0.36
CGATTCC,-0.257,-0.171,-0.0493,-0.0214,-0.0479,-0.56,-0.551,-0.0622,-0.0428
GGTCCGA,0.0555,0.0536,0.719,1.62,0.0231,1.91,0.231,0.117,0.149
TTACGTC,-0.0525,-0.14,-0.0214,-1.29,-0.0278,-0.763,-0.201,0.0249,-0.0579
ATATCGT,-0.119,-0.0214,-0.552,-1.08,0.0496,-1.08,-0.202,-0.0193,-0.113

Sequence,uncleaved DNA left (log2) [1],uncleaved DNA left (log2) [2],uncleaved DNA left (log2) [3],uncleaved DNA left (log2) [4],uncleaved DNA left (log2) [5],uncleaved DNA left (log2) [6],uncleaved DNA left (log2) [7],uncleaved DNA left (log2) [8],uncleaved DNA left (log2) [9]
CGCAGTG,-0.0101,-0.0888,-0.359,-0.0269,-0.00881,-0.382,0.14,-0.103,-0.00623
TTGTATC,0.0279,0.0386,0.156,0.0313,-0.0873,-0.355,-0.145,0.111,0.159
GCGTTCA,-0.0141,-0.00267,0.136,0.0105,-0.00694,0.302,-0.171,-0.00906,-0.077
ACATAGA,0.043,-0.0343,-0.395,-0.337,0.0473,-1.17,0.0202,0.00942,-0.0612
TTGCGAC,0.0777,0.0246,-0.442,0.0681,0.0976,-0.754,0.0776,0.119,0.111
CCGCGGC,-0.174,-0.0531,-0.189,-0.324,-0.0384,-0.56,0.106,-0.041,-0.0768
CACATAC,-0.00964,-0.114,-0.303,-0.778,-0.158,-1.04,0.00696,-0.161,-0.0648
GTAACTC,0.123,0.101,0.29,0.76,0.0305,1.55,0.223,0.152,0.166
TCTGCCT,-0.0784,-0.215,-0.15,-1.18,-0.178,-0.416,-0.18,-0.225,-0.121
CCGTCTG,-0.044,-0.0536,-0.0457,0.604,-0.0512,1.22,-0.112,-0.151,0.0839
CCAGGCG,-0.0777,0.00894,-0.725,0.374,-0.0515,-0.454,0.0832,0.0813,-0.146
TGAATCC,-0.0733,-0.0533,0.177,0.247,0.00773,0.253,-0.054,-0.0388,-0.0374
ATGCTTT,0.142,0.0351,-0.181,-1.89,0.0559,-0.783,-0.514,0.0218,-0.0184
TTTATCA,0.0357,0.145,0.629,0.849,-0.0286,1.49,-0.0211,0.145,0.251
GTTCTGC,0.00803,0.00655,0.156,0.427,-0.0335,0.266,0.0299,0.0372,-0.00429
GCGAGGG,-0.0797,0.0349,-0.0132,0.496,-0.0322,1.24,-0.0176,-0.0668,-0.0493
ACTTTTC,0.145,0.0963,-0.157,-0.214,0.101,-0.85,0.16,0.0202,0.113
CGGTCAA,-0.145,-0.0733,0.353,0.694,-0.0446,0.645,-0.0403,0.0968,0.19
GAGCCTG,0.144,0.0415,0.116,0.762,0.0403,1.68,0.0866,0.0327,0.161
AGCTGCT,-0.153,-0.0432,-0.12,0.386,-0.0841,0.272,-1.9,0.054,0.0235
